Article PMC11432932
No constants are given. Whether binding was seen depends on the method and setting. For part of these data: Binding seen in cells or lysates may run through a third protein. Some binding calls cover weakened binding; strength is not graded here. For part of these data: Where a sequence is shown, tags or fusion partners need not be part of it.

T1: EXO70E2-YC (Arabidopsis) (UniProt Q9FNR3)
T1 sequence: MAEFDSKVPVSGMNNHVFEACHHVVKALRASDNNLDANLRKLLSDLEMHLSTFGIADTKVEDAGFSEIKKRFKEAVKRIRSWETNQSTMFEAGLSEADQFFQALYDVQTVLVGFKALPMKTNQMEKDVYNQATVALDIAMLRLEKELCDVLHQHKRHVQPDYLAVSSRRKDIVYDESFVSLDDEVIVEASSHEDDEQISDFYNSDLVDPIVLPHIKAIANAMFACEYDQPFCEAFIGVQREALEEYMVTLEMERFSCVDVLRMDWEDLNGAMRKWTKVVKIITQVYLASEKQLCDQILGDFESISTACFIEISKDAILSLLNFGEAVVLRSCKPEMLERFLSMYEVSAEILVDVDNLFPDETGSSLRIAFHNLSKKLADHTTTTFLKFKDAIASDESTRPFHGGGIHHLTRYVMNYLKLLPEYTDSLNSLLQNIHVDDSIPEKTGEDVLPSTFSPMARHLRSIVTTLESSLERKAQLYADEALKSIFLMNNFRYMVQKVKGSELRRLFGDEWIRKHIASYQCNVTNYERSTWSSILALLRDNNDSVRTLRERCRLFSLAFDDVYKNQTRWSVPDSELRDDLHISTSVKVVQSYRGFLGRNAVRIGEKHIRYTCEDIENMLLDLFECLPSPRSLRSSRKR

T2: MBP-EXO70E2-6His (Arabidopsis) (UniProt Q9FNR3)
T2 sequence: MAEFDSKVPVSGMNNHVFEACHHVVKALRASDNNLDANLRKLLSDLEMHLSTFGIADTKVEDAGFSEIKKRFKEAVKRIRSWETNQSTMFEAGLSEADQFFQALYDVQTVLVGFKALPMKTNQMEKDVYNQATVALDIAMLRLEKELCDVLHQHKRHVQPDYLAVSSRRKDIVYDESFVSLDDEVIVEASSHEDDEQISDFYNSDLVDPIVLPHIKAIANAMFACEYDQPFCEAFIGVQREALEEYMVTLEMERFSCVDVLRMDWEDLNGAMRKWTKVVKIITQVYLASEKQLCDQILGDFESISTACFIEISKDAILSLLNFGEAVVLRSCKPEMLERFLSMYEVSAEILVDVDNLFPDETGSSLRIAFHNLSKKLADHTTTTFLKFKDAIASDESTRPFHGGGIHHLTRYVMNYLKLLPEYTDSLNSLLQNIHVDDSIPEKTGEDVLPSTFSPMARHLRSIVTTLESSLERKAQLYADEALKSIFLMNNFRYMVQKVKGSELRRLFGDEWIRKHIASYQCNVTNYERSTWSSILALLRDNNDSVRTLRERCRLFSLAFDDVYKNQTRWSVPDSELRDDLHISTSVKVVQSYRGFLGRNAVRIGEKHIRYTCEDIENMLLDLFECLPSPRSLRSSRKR

T3: BD-EXO70E2 (Arabidopsis) (UniProt Q9FNR3)
T3 sequence: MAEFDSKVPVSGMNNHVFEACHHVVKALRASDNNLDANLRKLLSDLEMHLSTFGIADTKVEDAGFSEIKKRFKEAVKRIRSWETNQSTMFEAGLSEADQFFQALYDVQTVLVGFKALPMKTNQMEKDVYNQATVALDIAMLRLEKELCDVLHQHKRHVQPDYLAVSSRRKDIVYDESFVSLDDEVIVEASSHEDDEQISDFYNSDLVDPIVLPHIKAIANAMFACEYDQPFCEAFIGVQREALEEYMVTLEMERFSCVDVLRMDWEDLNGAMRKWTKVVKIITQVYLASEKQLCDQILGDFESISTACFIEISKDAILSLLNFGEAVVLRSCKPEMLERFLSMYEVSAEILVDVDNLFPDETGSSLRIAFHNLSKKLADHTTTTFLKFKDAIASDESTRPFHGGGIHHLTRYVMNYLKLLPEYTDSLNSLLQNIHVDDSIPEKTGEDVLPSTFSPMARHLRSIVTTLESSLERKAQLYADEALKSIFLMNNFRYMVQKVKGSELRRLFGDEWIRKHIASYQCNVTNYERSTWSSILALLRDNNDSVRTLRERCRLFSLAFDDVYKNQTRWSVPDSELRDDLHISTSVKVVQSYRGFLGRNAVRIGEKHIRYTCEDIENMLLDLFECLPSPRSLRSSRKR


Target: T1, EXO70E2-YC (Arabidopsis)
Assay: split reporter; BiFC with YFP halves, vectors co-transformed into Arabidopsis protoplasts for 18 h; confocal microscopy

binding | Binder
binds | BOI-YN (protein, UniProt O81851 1-304) MAVQAHHMNIFSQFISPNRDCVKFQENMNHGEFEFTGGEVPLITGESFAVEPLAAKANFNKAESGLSYNFTVPPLSTKRQRDFQFSDSNAPVKRRSVAFDSSSPSLINVELVSQIQNQQQSEIDRFVAQQTEKLRIEIEARQQTQTRMLASAVQNVIAKKLKEKDDEIVRIRNLNWVLQERVKSLYVENQIWRDIAQTNEANANTLRTNLDQVLAQLETFPTASAVVEDDAESSCGSCCGDGGGEAVTAVGGGCKRCGEREASVLVLPCRHLCLCTVCGGSALLRTCPVCDMVMNASVHVNMSS

Target: T2, MBP-EXO70E2-6His (Arabidopsis)
Assay: pull-down; MBP-BOI-HA incubated with MBP-6His or MBP-EXO70E2-6His and Ni-NTA agarose beads, 2–3 h at 4 °C; beads washed 6–10 times; anti-HA immunoblot

binding | Binder
binds | MBP-BOI-HA (protein, UniProt O81851 1-304) MAVQAHHMNIFSQFISPNRDCVKFQENMNHGEFEFTGGEVPLITGESFAVEPLAAKANFNKAESGLSYNFTVPPLSTKRQRDFQFSDSNAPVKRRSVAFDSSSPSLINVELVSQIQNQQQSEIDRFVAQQTEKLRIEIEARQQTQTRMLASAVQNVIAKKLKEKDDEIVRIRNLNWVLQERVKSLYVENQIWRDIAQTNEANANTLRTNLDQVLAQLETFPTASAVVEDDAESSCGSCCGDGGGEAVTAVGGGCKRCGEREASVLVLPCRHLCLCTVCGGSALLRTCPVCDMVMNASVHVNMSS

Target: T3, BD-EXO70E2 (Arabidopsis)
Assay: two-hybrid; bait in pGBKT7, prey in pGADT7, Gold Yeast Y2H; growth on SD/(-Trp-Leu-His-Ade) (QDO) medium for 3 days

binding | Binder
binds | BOI RING domain deficient fragment (1–229 aa) (domain or fragment, UniProt O81851 1-229) MAVQAHHMNIFSQFISPNRDCVKFQENMNHGEFEFTGGEVPLITGESFAVEPLAAKANFNKAESGLSYNFTVPPLSTKRQRDFQFSDSNAPVKRRSVAFDSSSPSLINVELVSQIQNQQQSEIDRFVAQQTEKLRIEIEARQQTQTRMLASAVQNVIAKKLKEKDDEIVRIRNLNWVLQERVKSLYVENQIWRDIAQTNEANANTLRTNLDQVLAQLETFPTASAVVED
binds | AD-BOI (protein, UniProt O81851 1-304) MAVQAHHMNIFSQFISPNRDCVKFQENMNHGEFEFTGGEVPLITGESFAVEPLAAKANFNKAESGLSYNFTVPPLSTKRQRDFQFSDSNAPVKRRSVAFDSSSPSLINVELVSQIQNQQQSEIDRFVAQQTEKLRIEIEARQQTQTRMLASAVQNVIAKKLKEKDDEIVRIRNLNWVLQERVKSLYVENQIWRDIAQTNEANANTLRTNLDQVLAQLETFPTASAVVEDDAESSCGSCCGDGGGEAVTAVGGGCKRCGEREASVLVLPCRHLCLCTVCGGSALLRTCPVCDMVMNASVHVNMSS
no binding | BOI fragment containing only the RING domain (230–304 aa) (domain or fragment, UniProt O81851 230-304) DAESSCGSCCGDGGGEAVTAVGGGCKRCGEREASVLVLPCRHLCLCTVCGGSALLRTCPVCDMVMNASVHVNMSS
binds | BRG3 (in pGADT7) (protein, UniProt Q9LDD1 1-335) MAVEAHHLNPLFSSNREMIHPVEASGVVYNTQMRYGTVPTFNPTVECQTSLFNPIYNISPVDRLVHQSMKPTIQSVDSSLTFNSDNNVDFLRPVSSRKRSREESVVLNPSAYMQIQKNPTDPLMFLGQDLSSNVQQHHFDIDRLISNHVERMRMEIEEKRKTQGRRIVEAVEQGLMKTLRAKDDEINHIGKLNLFLEEKVKSLCVENQIWRDVAQSNEATVNALRSNLQQVLAAVERNRWEEPPTVADDAQSCCGSNDEGDSEEERWKLAGEAQDTKKMCRVGMSMCRSCGKGEASVLLLPCRHMCLCSVCGSSLNTCPICKSPKTASLHVNLSS
binds | BOI C-terminal (151–304 aa) (domain or fragment, UniProt O81851 151-304) SAVQNVIAKKLKEKDDEIVRIRNLNWVLQERVKSLYVENQIWRDIAQTNEANANTLRTNLDQVLAQLETFPTASAVVEDDAESSCGSCCGDGGGEAVTAVGGGCKRCGEREASVLVLPCRHLCLCTVCGGSALLRTCPVCDMVMNASVHVNMSS
no binding | BOI N-terminal (1–150 aa) (domain or fragment, UniProt O81851 1-150) MAVQAHHMNIFSQFISPNRDCVKFQENMNHGEFEFTGGEVPLITGESFAVEPLAAKANFNKAESGLSYNFTVPPLSTKRQRDFQFSDSNAPVKRRSVAFDSSSPSLINVELVSQIQNQQQSEIDRFVAQQTEKLRIEIEARQQTQTRMLA
binds | BRG2 (in pGADT7) (protein, UniProt F4IDI6 1-358) MAVDAHHLFLSPPQLFSNRELTMNNNTMEPTSGGFCNNNQTGYGVVSPFSVPNHTSTTTTATPPLLHVYGGSDTIPTTAGYYADGATNLDCEFFPLPTRKRSRDSSRSNYHHLLLQNPRSSSCVNAATTTTTTTLFSFLGQDIDISSHMNQQQHEIDRFVSLHLYQMERVKYEIEEKRKRQARTIMEAIEQGLVKRLRVKEEERERIGKVNHALEERVKSLSIENQIWRDLAQTNEATANHLRTNLEHVLAQVKDVSRGAGLEKNMNEEDDAESCCGSSCGGGGEETVRRRVGLEREAQDKAERRRRRMCRNCGEEESCVLLLPCRHLCLCGVCGSSVHTCPICTSPKNASVHVNMSS
